Among all 270,000 compounds or so, about 620 (0.23%) were called active. Inconclusive means that the source gave no clear call. Such entries were picked first, then a sample of the others. Calls follow the shape of the dose curve; as a rule, active = well fitted inhibition curve with a large enough effect in the polarisation, with a control signal flat (not every such curve was filed as active); inconclusive = small, poorly fitted or top-dose-only effect, or effect the other way, or a change in a side signal; inactive = no such curve, though single readings can be large or run the other way; the % refers to the polarisation. A potency beside an inconclusive call is a rough fit, not a confirmed value. A note “side channel” means that the fit belongs to a control or component signal, not to the main read-out.
target: Menin (Homo sapiens) (UniProt O00255); test: qHTS Assay for Inhibitors Targeting the Menin-MLL Interaction in MLL Related Leukemias: Competition With Texas Red Labeled MLL-derived Mutant Peptide; conditions: fluorescence polarization; FP activity change, negative = inhibition: at 61.6 µM (top of the series); as to FP activity change, negative = inhibition: % of control where 0% means no effect
UniProt O00255, sequence (O00255 whole entry, looked up): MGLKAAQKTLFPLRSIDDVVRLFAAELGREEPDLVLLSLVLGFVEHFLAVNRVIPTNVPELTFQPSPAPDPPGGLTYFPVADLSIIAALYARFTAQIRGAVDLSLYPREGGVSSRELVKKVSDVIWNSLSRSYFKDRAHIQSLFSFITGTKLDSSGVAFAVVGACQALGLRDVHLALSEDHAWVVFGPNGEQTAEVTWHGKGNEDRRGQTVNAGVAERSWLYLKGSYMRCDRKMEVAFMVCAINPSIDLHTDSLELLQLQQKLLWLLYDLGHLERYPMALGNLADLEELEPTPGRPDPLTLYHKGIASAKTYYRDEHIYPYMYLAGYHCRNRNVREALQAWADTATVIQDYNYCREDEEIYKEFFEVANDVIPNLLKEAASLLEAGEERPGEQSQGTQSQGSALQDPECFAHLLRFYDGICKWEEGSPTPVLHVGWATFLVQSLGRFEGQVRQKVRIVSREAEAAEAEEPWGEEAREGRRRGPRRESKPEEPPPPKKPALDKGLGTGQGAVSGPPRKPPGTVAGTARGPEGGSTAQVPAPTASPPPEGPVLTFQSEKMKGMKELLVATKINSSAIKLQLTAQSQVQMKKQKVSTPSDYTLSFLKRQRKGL
Potency is read from the fitted curve at half-maximal effect; tags tell the direction and shape of the fitted curve or compound fluorescence and quenching.

**Q.** For `c1ccc2[nH]c(NCc3ccc4c(c3)OCO4)nc2c1`, which Potency is on record?
**A.** inconclusive: 17.8 µM [inhibitor, partial curve]

**Q.** `CCN(CC(=O)Nc1c(C(=O)OC)[nH]c2ccc(Cl)cc12)c1ccc2c(c1)OCO2` was tested. Which Potency did it give?
**A.** inconclusive: 14.1 µM [quencher, side channel, partial curve]

**Q.** Which Potency does the source give for `COc1ccc(NC(=O)COc2ccc(C(=O)NC3CCCc4ccccc43)cc2OC)cc1` (configuration not stated) here?
**A.** inconclusive: 20 µM [fluorescent, side channel, partial curve]

**Q.** Which Potency does the source give for `COC(=O)C1=C(C)N(Cc2ccccc2)C(=NCc2ccc(OC)cc2)N[C@H]1c1cccc(F)c1` here?
**A.** inconclusive: 7.94 µM [fluorescent, side channel, full curve, poor fit]

**Q.** How did the Potency turn out when `O=C(O)CCC(=O)Nc1ccc(C(=O)OCC(=O)c2ccc(Cl)cc2)cc1` was run?
**A.** inconclusive: 39.8 µM [quencher, side channel, single point]

**Q.** For `Oc1ccc(/C=C/c2ccnc3ccccc23)cc1`, which Potency is on record?
**A.** inconclusive: 20 µM [quencher, side channel, partial curve]

**Q.** Which Potency does the source give for `O=C(c1ccccc1)c1coc2ccc(O)c(Cl)c12` here?
**A.** inconclusive: 25.1 µM [quencher, single point]

**Q.** How did the Potency turn out when `COc1ccc(O)c(/C=C2/SC(=S)N(Cc3ccccc3)C2=O)c1` was run?
**A.** inconclusive: 6.31 µM [quencher, side channel, partial curve]

**Q.** How did the “FP activity change, negative = inhibition” value turn out when `CCN(CC)S(=O)(=O)c1ccc(Cl)c(C(=O)NC2CCN(Cc3ccccc3)CC2)c1` was run?
**A.** inactive: -17.4%

**Q.** For `CC1CCN(c2cc(N)c(Cl)cc2[N+](=O)[O-])CC1`, which Potency is on record?
**A.** inconclusive: 22.4 µM [quencher, side channel, partial curve]

**Q.** Which Potency does the source give for `CCOC(=O)C1=C(CN2CCC(C)CC2)NC(=O)NC1c1ccc(Cl)cc1` (configuration not stated) here?
**A.** inconclusive: 5.01 µM [inhibitor, full curve, poor fit]

**Q.** `Cc1onc(-c2c(F)cccc2Cl)c1C(=O)OCC(=O)c1c(N)n(C)c(=O)n(C)c1=O` was tested. Which Potency did it give?
**A.** inconclusive: 39.8 µM [quencher, side channel, single point]

**Q.** `Nc1c(S(=O)(=O)c2ccccc2)c2nc3ccccc3nc2n1C1CC1` was tested. Which “FP activity change, negative = inhibition” value did it give?
**A.** inactive: 3.27%

**Q.** Which Potency does the source give for `COc1cc(/C=C/c2ccc3cccc(O)c3n2)cc(Br)c1OC` here?
**A.** inconclusive: 8.91 µM [quencher, side channel, full curve]

**Q.** With `Cc1ccc(S(=O)(=O)N(CC(=O)N2CCN(c3ccccc3F)CC2)C2CCCCC2)cc1` as the compound, how does the Potency read?
**A.** inconclusive: 5.01 µM [fluorescent, side channel, full curve, poor fit]

**Q.** Which Potency does the source give for `Nc1ccc2c(c1)C(=O)Cc1ccccc1S2` here?
**A.** inconclusive: 20 µM [quencher, side channel, single point]

**Q.** With `COc1ccc(CCn2c(N)c(C#N)c3nc4ccccc4nc32)cc1OC` as the compound, how does the “FP activity change, negative = inhibition” value read?
**A.** inactive: -16.6%

**Q.** With `O=C(Nc1ccc(N2CCCC2)c(Cl)c1)c1ccc([N+](=O)[O-])o1` as the compound, how does the Potency read?
**A.** inconclusive: 11.2 µM [quencher, side channel, partial curve]

**Q.** For `COC(=O)CN1C2=NCCCN2c2ccccc21`, which Potency is on record?
**A.** inconclusive: 17.8 µM [inhibitor, single point]

**Q.** With `CCCc1ccc(-c2csc(NC(=O)Cc3cccs3)n2)cc1` as the compound, how does the Potency read?
**A.** inconclusive: 5.62 µM [quencher, side channel, full curve]

**Q.** With `CC(C)(C)NC(=O)COC(=O)c1c2c(nc3ccccc13)CCC2` as the compound, how does the Potency read?
**A.** inconclusive: 35.5 µM [quencher, side channel, single point]

**Q.** With `O=C(/C=C/c1ccc(Cl)cc1)Nc1ccc(S(=O)(=O)Nc2ncccn2)cc1` as the compound, how does the Potency read?
**A.** inconclusive: 39.8 µM [inhibitor, single point]

**Q.** Which Potency does the source give for `COc1ccc(NS(=O)(=O)c2cc(C)ccc2OC)cc1OC` here?
**A.** inconclusive: 39.8 µM [inhibitor, single point]

**Q.** How did the Potency turn out when `Cn1c2ccccc2c(=O)c2cc(C#Cc3ccsc3)ccc21` was run?
**A.** inconclusive: 28.2 µM [fluorescent, side channel, single point]

**Q.** Which Potency does the source give for `CCCCN1C(=O)C(O)(CC(=O)c2c(C)coc2C)c2ccccc21` (configuration not stated) here?
**A.** inconclusive: 11.2 µM [fluorescent, side channel, partial curve, poor fit]

**Q.** With `Cc1cc(/C=C2\Sc3ccccc3N2C)cc(C)[n+]1CC1CCCO1` (configuration not stated) as the compound, how does the Potency read?
**A.** inconclusive: 39.8 µM [inhibitor, single point]

**Q.** With `CC1=CSC2=NC(=O)/C(=C\c3cccn3-c3ccc([N+](=O)[O-])cc3)C(=N)N12` as the compound, how does the Potency read?
**A.** inconclusive: 11.2 µM [quencher, side channel, partial curve]

**Q.** `COc1ccc(-n2c(=O)c(-c3ccc(F)cc3)nc3cnc(N4CCNCC4)nc32)cc1` was tested. Which “FP activity change, negative = inhibition” value did it give?
**A.** inactive: -1.43%

**Q.** `Cc1c(C(=O)N(Cc2ccc(F)cc2)C2CCS(=O)(=O)C2)oc2ccccc12` (configuration not stated) was tested. Which Potency did it give?
**A.** inconclusive: 35.5 µM [inhibitor, partial curve]

**Q.** For `O=C(c1nc2ncccn2n1)N1CCN(c2ccccc2)CC1`, which “FP activity change, negative = inhibition” value is on record?
**A.** inactive: 30.2%

**Q.** `O=c1cc(-c2ccc(O)c(O)c2)oc2cc(O)c(C3OC(CO)C(O)C(O)C3O)c(O)c12` (configuration not stated) was tested. Which Potency did it give?
**A.** inconclusive: 20 µM [quencher, side channel, partial curve]

**Q.** How did the Potency turn out when `COc1ccc(C2C(C(C)=O)=C(O)C(=O)N2c2nccs2)cc1` (configuration not stated) was run?
**A.** inconclusive: 28.2 µM [quencher, side channel, single point]

**Q.** How did the Potency turn out when `CCCc1ccc(-c2cc(NC(=O)CSc3n[nH]c(N)n3)n(-c3ccccc3)n2)cc1` was run?
**A.** inconclusive: 14.1 µM [quencher, side channel, partial curve]

**Q.** For `Cc1ccc(Nc2c([N+](=O)[O-])ccc3nonc23)cc1C`, which Potency is on record?
**A.** inconclusive: 12.6 µM [quencher, side channel, partial curve]

**Q.** Which Potency does the source give for `CC1CCCCC12NC(=O)N(CC(=O)Nc1sc3c(c1C(N)=O)CCC3)C2=O` (configuration not stated) here?
**A.** inconclusive: 25.1 µM [quencher, side channel, single point]

**Q.** `Cc1ccc2[nH]c3ccccc3c(=O)c2c1` was tested. Which Potency did it give?
**A.** inconclusive: 2.82 µM [inhibitor, full curve, poor fit]

**Q.** Which Potency does the source give for `Cc1ccc2cc(/C=N/NC(=O)CN3CCOCC3)c(Cl)nc2c1` here?
**A.** inconclusive: 8.91 µM [inhibitor, single point]
